Test results as given in PubChem BioAssay AID493208 (National Center for Advancing Translational Sciences (NCATS), 2011).
Among all 44,000 compounds or so, about 340 (0.77%) were called active. Not shown: some 5% with an inconclusive outcome. Calls come from the whole dose curve; as a rule, active = well fitted inhibition curve with a large enough effect; inconclusive = small, poorly fitted or top-dose-only effect; inactive = flat fitted curve, though single readings scatter. The list shows a part of the results.

Assay: Acumen qHTS Assay for Inhibitors of the mTORC1 Signaling Pathway in MEF (Tsc2-/-, p53-/-) Cells: Sytravon; note: nearly all actives have a fitted effect of over 50% in size;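 for activity change, negative = inhibition: plate controls were DMSO for no effect and rapamycin for full effect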
Conditions: phospho-rpS6 immunofluorescence/PI, 24 h; series mostly up to 38.3 µM; activity change, negative = inhibition: at the top concentration
Outline: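 Readout is phospho-S6 Alexa 488 signal normalized to PI per well, reported as % active cells with thresholds set from rapamycin (7.5 nM) and DMSO controls. Cells: Tsc2-/-, p53-/- MEFs, 24 hrs compound at 37 C; PI cell number serves as viability.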
Potency is the fitted concentration of half-maximal effect.

Row | Compound | activity change, negative = inhibition | Potency
1 | Cc1cn2c(=O)cc(COC(=O)c3ccc(NC(=O)COc4ccccc4F)cc3)nc2s1 | inactive: 0% | 
2 | CCOc1ccccc1OCCCn1c(-c2ccc(Cl)cc2)nc2ccccc2c1=O | inactive: -0.977% | 
3 | Cc1cc(C)cc(-n2c(-c3ccccc3)c(C)n3c4c(=O)n(C)c(=O)n(C)c4nc23)c1 | inactive: 2.06% | 
4 | COc1cc(C(=O)NCC(c2cccs2)S(=O)(=O)c2cccs2)cc(OC)c1OC (centres undefined) | inactive: -8.39% | 
5 | CCc1ccccc1NC(=O)c1cnc(N2CCCCC2)c2ccccc12 | inactive: 5.15% | 
6 | CCOc1ccc(CCNC(=O)Cn2nc(CC)n3c(cc4ccccc43)c2=O)cc1 | inactive: -5.6% | 
7 | COc1ccc(-c2c3c(=O)n(C)c(=O)n(C)c3c3n2-c2ccccc2NC3c2ccco2)cc1 (centres undefined) | inactive: -1.83% | 
8 | CCOC(=O)c1[nH]c(C)c(CCC(=O)Nc2cc(C)ccc2OC)c1C | inactive: 2.07% | 
9 | Cc1ccccc1CN1CCC(CNC(=O)c2c(C)oc3ncnc(N4CCCCC4)c23)CC1 | inactive: -4.98% | 
10 | CCN1C(=O)c2ccccc2S(=O)c2ccc(C(=O)N3CCN(c4cc(Cl)ccc4C)CC3)cc21 (centres undefined) | inactive: -13.2% | 
11 | CCC(Sc1nc(-c2ccccc2F)nc2c1Cc1c(CO)cnc(C)c1O2)C(=O)Nc1cc(C)ccc1C (centres undefined) | inactive: -3.93% | 
12 | CCOc1ccc(CCNC(=O)C2=C(C)C(=O)OC23CCCCC3)cc1 | inactive: 6.44% | 
13 | Fc1ccc(-c2noc3ncnc(NCc4ccc(Cl)cc4)c23)cc1 | inactive: -7.42% | 
14 | O=C(CCn1c(=O)c2cccn2c2cccnc21)NCc1ccc(F)cc1 | inactive: 2.91% | 
15 | CN(Cc1ccccc1)C(=O)c1ccc2c(c1)N(Cc1ccccc1Cl)C(=O)c1ccccc1S2 | inactive: -2.88% | 
16 | COc1cc(C2CC(=O)Oc3c2c(=O)n(C)c2ccccc32)ccc1O (centres undefined) | inactive: -18.1% | 
17 | CCOC(=O)C1CCN(S(=O)(=O)c2ccc3c(c2)N(C)C(=O)CC(=O)N3C)CC1 | inactive: 0.0448% | 
18 | COc1ccc(C(=O)NC2(C(F)(F)F)C(=O)Nc3c2c(=O)[nH]c(=O)n3CCc2ccc(OC)c(OC)c2)cc1 (centres undefined) | inactive: 11% | 
19 | O=C(COc1ccccc1)Nc1ccc2nc(SCCOc3ccccc3)sc2c1 | inactive: -0.534% | 
20 | CCOC(=O)c1c(C)[nH]c(C)c1S(=O)(=O)N(C)CC(=O)Nc1ccc(C)cc1C | inactive: 8% | 

Row | Compound | activity change, negative = inhibition | Potency
21 | Cc1cc(C)c2oc(-c3cccc(NC(=O)COc4ccc([N+](=O)[O-])cc4)c3)nc2c1 |  | active: 20.7 µM
22 | Cc1ccc(NC(=O)Cn2c(=O)n(CC3CCCO3)c(=O)c3ccccc32)cc1 (centres undefined) | inactive: -1.23% | 
23 | Cc1ccc(Cl)cc1N1CCN(C(=O)c2ccc(CS(=O)(=O)c3ccccc3C)o2)CC1 | inactive: -11.9% | 
24 | Cc1cccc(-c2nnc(C3CCN(S(=O)(=O)c4cccc(Cl)c4)CC3)o2)c1 | inactive: -21.2% | 
25 | CCOc1cc2[nH]c(=O)n(Cc3ccc(C(=O)N4CCN(c5cccc(Cl)c5)CC4)cc3)c(=O)c2cc1OCC | inactive: -0.278% | 
26 | COc1cc(C2NC(=O)c3c(sc4c3CCN(C)C4)N2)cc(OC)c1OC (centres undefined) | inactive: -0.72% | 
27 | CC(=O)CSc1nnc2[nH]c(=O)cc(N)n12 | inactive: -7.22% | 
28 | O=C(Cn1c(=O)nc(-c2ccccc2)c2cc(Cl)ccc21)N1CCN(c2ccc(F)cc2)CC1 | inactive: 14.4% | 
29 | COc1ccc(Br)cc1CN1C(=O)c2ccccc2C1C(=O)NC1CCCCCC1 (centres undefined) | inactive: 9.49% | 
30 | CCOC(=O)c1c(C)c(-c2ccccc2)n(CC(=O)NC2CCCCC2)c1C | inactive: -7.4% | 
31 | CCOC(=O)c1c(C)[nH]c(C)c1S(=O)(=O)N1CCCC(C(=O)N2CCN(c3cccc(C)c3C)CC2)C1 (centres undefined) | inactive: -5.34% | 
32 | COc1ccc(Cl)cc1NC(=O)c1nn(-c2ccc(C)cc2)c(=O)n(C)c1=O | inactive: 4.03% | 
33 | COc1cc(NC(=O)Cn2cnc(S(=O)(=O)N3CCCC3)c2)cc(OC)c1OC | inactive: -1.25% | 
34 | Cc1cccc(CNC(=O)CS(=O)(=O)c2cccc3nsnc23)c1 | inactive: 2.55% | 
35 | CCN(C(=O)c1cnc2ccc(C)cn2c1=O)c1ccccc1 | inactive: -0.324% | 
36 | COCCNC(=O)c1cnc2sc(N3CCC(C)CC3)nn2c1=O | inactive: 0% | 
37 | CCc1ccc(NC(=O)C2CCN(c3nn4c(=O)cc(C)nc4s3)CC2)cc1 | inactive: -6.53% | 
38 | Clc1ccc(-c2noc3ncnc(NCCc4ccccc4)c23)cc1 | inactive: 6.04% | 
39 | O=C(Nc1ccc2c(c1)CCCN2C(=O)c1cccs1)c1ccccc1Cl | inactive: 0% | 
40 | COc1cc(OC)c(Nc2nc3ccc(C(=O)c4ccccc4)cc3n3c(C)nnc23)cc1Cl | inactive: -2.31% | 

Row | Compound | activity change, negative = inhibition | Potency
41 | O=C(Nc1ccc(OC(F)(F)F)cc1)c1cc2ccccn2n1 | inactive: -0.896% | 
42 | O=c1nc2n(-c3ccccc3F)c3ccccc3cc-2c(=O)[nH]1 | inactive: -10.3% | 
43 | CCCCn1cc2c(c1-c1ccc(Cl)cc1)c(=O)n(C)c(=O)n2C | inactive: -13.3% | 
44 | Cc1cc(C)cc(NS(=O)(=O)c2cc3c(cc2C)NC(=O)CO3)c1 | inactive: 3.31% | 
45 | CCC(=O)N(CCC(c1ccccc1)c1ccc2c(c1)OCO2)Cc1ccc(OC(C)C)cc1 (centres undefined) | inactive: -0.946% | 
46 | CCOC(=O)c1c(NC(=O)c2ccc(S(=O)(=O)N(CC(C)C)CC(C)C)cc2)sc2c1CCN(C(=O)OCC)C2 | inactive: -18.5% | 
47 | COc1ccc(NC(=O)CSc2nnc(-c3nonc3NC(C)=O)n2-c2ccccc2)cc1 | inactive: 2.12% | 
48 | COc1ccc(Cl)cc1NC(=O)c1sc2nc3n(c(=O)c2c1C)CCC3 | inactive: 6.11% | 
49 | CCCN(C(=O)Cn1cnc2onc(-c3ccc(F)cc3)c2c1=O)c1cccc(Cl)c1 | inactive: -5.65% | 
50 | CCC(Sc1nc2ccccc2c(=O)n1CCc1ccc(OC)c(OC)c1)C(=O)N(CC)CC (centres undefined) | inactive: -6.68% | 
51 | Cc1cc(C)n(-c2nc3ccccc3nc2Nc2cccc(C)c2C)n1 | inactive: -3.66% | 
52 | CCOc1ccc(CCNS(=O)(=O)c2cc(Br)cc3c2N(C(C)=O)CC3)cc1OCC | inactive: -0.36% | 
53 | COC(=O)c1c(NC(=O)CCCOc2cccc(C)c2)sc2c1C(C(=O)OC)CC2 (centres undefined) | inactive: -3.06% | 
54 | CCN(CC)C(=O)Cn1c(=O)n(Cc2ccc(C(=O)NCCc3ccc(OC)c(OC)c3)cc2)c(=O)c2ccccc21 | inactive: 2.02% | 
55 | CCc1ccc(CN(Cc2cn[nH]c2-c2ccc(OC)cc2)C(=O)Nc2cc(Cl)ccc2OC)cc1 | inactive: -2.07% | 
56 | Cc1ccc(-n2ncc(C(=O)NCc3ccco3)c2C2CCN(C(=O)OC(C)(C)C)CC2)c(C)c1 | inactive: 0.018% | 
57 | CC(=O)c1ccc(N2C(=O)N(CC(=O)c3ccc(F)cc3)c3ccccc3S2(=O)=O)cc1 | inactive: -6.16% | 
58 | Cc1ccc(-n2ncc3c(NC4CCCCCC4)ncnc32)cc1Cl | inactive: 12.5% | 
59 | COc1ccc(S(=O)(=O)NCCc2csc(-c3ccc(F)cc3)n2)cc1F | inactive: -2.34% | 
